98 compounds from PubChem BioAssay AID485344 (National Center for Advancing Translational Sciences (NCATS), 2010) can be followed below.

Usually inhibition stands for the relative decrease from the control value, in per cent.

About 6,900 (2%) of roughly 340,000 compounds were called active. No stated cut-off is given here; in the data, active means inhibition above about 30%; inactive means below that, where a call was filed. The list shows a part of the results, in another mix than the full data. Entries without a call were filed so in the source.

The assay addresses D(2) dopamine receptor (Homo sapiens) (UniProt P14416). Nature of the assay: HTS Assay for Allosteric Antagonists of the Human D2 Dopamine Receptor: Primary Screen for Antagonists. Further: 0% is about no effect. The conditions noted are these: HEK293 TREx D2 cells, calcium flux, dopamine EC80; at 10 µM; stronger effect = higher value. The gist of the method: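 Calcium flux kinetic readout in an inducible HEK293 TREx D2 line plated overnight at 30 C. After 180 s compound exposure, an EC80 dopamine challenge follows with another 180 s kinetic read to detect antagonism.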
Chain of UniProt P14416 (P14416 whole entry, looked up): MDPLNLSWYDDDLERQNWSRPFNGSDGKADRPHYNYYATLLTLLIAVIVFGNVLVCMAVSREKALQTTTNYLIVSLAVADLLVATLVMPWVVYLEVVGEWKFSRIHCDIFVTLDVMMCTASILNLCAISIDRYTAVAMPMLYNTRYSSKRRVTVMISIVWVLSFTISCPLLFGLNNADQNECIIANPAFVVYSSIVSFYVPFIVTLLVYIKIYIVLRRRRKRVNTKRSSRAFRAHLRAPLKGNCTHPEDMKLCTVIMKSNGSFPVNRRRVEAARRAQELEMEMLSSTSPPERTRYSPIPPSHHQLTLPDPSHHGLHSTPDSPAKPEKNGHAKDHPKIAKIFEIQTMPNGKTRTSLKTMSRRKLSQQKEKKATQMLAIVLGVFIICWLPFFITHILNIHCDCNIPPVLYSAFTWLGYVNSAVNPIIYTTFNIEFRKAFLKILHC
(Calcium flux is commonly read through the fluorescence of an indicator in the cells.)
On to `CCCCN(CC)C(=O)C1CCC(CNS(=O)(=O)c2cccc3nsnc23)CC1` (stereo not drawn), for which the inhibition turned out to be 0.915%.
With `Cc1cc(NC(=O)c2ccco2)cc(-c2nc3cc(Cl)ccc3o2)c1O`, the inhibition came to 4.3%.
Take `COc1ccccc1C(=O)N(Cc1ccco1)Cc1ccccc1F`: the inhibition was -1.6%.
`COc1ccc(Cl)cc1NC(=O)CN1C(=O)CSc2ccc(S(=O)(=O)N3CCCC3)cc21`: the inhibition was -1.67%.
Take `CCOc1ccc(NC(=O)CCc2c(C)nc3c(c(C)nn3-c3ccccc3)c2C)cc1`: the inhibition was -1.67%.
Regarding `CCOc1ccc(NC(=O)CC2C(=O)N(c3cccc(C)c3)C(=O)N2CCC2=CCCCC2)cc1` (stereo not drawn), the inhibition was found to be 10%.
With `CCc1ccc(CN(Cc2ccco2)C(=O)c2ccc(C)cc2)cc1` the figure was 26%.
With `Cc1ccc(S(=O)(=O)n2nc(C)c(S(=O)(=O)N3CCCCC3)c2C)cc1` the figure was -4.01%; with `COc1cccc(CN2CCc3ccc(NC(=O)CCc4ccc(C)cc4)cc3C2)c1O`, active: 30.6%; with `CC(=O)Nc1ccccc1-c1nc2ccccc2n(C(C)C(=O)Nc2cccc(C)c2C)c1=O` (stereo not drawn), 4.33%.
With `CCN(CC)c1ccc(CN(C(=O)c2cccs2)C2CCS(=O)(=O)C2)cc1` (stereo not drawn) the figure was active: 30.1%; with `O=C(Nc1ccccc1)N(Cc1cccs1)c1ccc(Cl)cc1`, -7.79%.
With `CC(=O)N(Cc1cccnc1)c1nc2cc(C)cc(C)c2s1`, the inhibition is -25.6%.
With `Cc1ccc(-n2c(=O)[nH]c3sc4c(c3c2=O)CCCC4)cc1` the figure was 11.6%; with `CCCCNC(=O)c1cc(-c2ccc(Cl)c(Cl)c2)on1`, 1.67%; with `Cc1cccn2c(=O)cc(COc3ccc(NC(=O)C(C)Oc4ccccc4)cc3)nc12` (stereo not drawn), 15.1%.
With `NS(=O)(=O)c1ccc(NC(=O)CN2CCN(c3ccc(F)cc3)CC2)cc1` the figure was 5.35%; with `Cn1c(=O)c2c(-c3ccccc3Br)n(Cc3ccccc3)cc2n(C)c1=O`, -19.8%; with `COc1ccc(-n2c(SCC(=O)NC3CCCCC3)nc3c([nH]c4ccccc43)c2=O)cc1`, -14.5%.
Regarding `COc1ccc(-c2cc3c(=O)n(CC(=O)Nc4cc(C)ccc4C)ccn3n2)cc1`, the inhibition stood at 12.3%.
The figure for `Cc1ccc(Cl)cc1-n1ncc2c(NCCC3=CCCCC3)ncnc21` is 4.8%.
The figure for `CCOc1ccc(OCC)c(-n2cnnn2)c1` is 8.97%; for `Cc1c(NC(=O)Nc2ccc(Cl)c(C(F)(F)F)c2)c(=O)n(-c2ccccc2)n1C` it is -0.017%; for `Fc1ccccc1N1CCN(c2ncnc3onc(-c4cccc(Cl)c4)c23)CC1` it is 16.4%.
For `COc1cccc(OCc2cc(=O)n3cc(C)sc3n2)c1`, the inhibition is 16.8%.
With `Cc1ccc(NC(=O)Cn2cc(C(=O)c3ccco3)c3ccccc32)c(C)c1` the figure was -1.57%.
Take `CCOc1cc(C2CC(=O)Nc3c2c(=O)nc(SCc2cccc(Cl)c2)n3C)ccc1O` (stereo not drawn): the inhibition is -5.78%.
As for `O=C(Nc1cccc(Cl)c1)c1cc(S(=O)(=O)N2CCCc3ccccc32)ccc1F`, the inhibition was found to be 14.6%.
With `Cc1ccccc1CNC(=O)c1cc2cccc3c2n1CC(C)S3` (stereo not drawn) the figure was 11.7%; with `COc1ccc(-c2cc(C(=O)Nc3sc4c(c3C(N)=O)CCC(C)C4)no2)cc1` (stereo not drawn), -10.3%.
As for `CC(=O)Nc1cccc(NC(=O)CSc2nccn2Cc2ccco2)c1`, the inhibition is -26.3%.
As to `CCOc1ccc(-c2nnc(SCC(=O)c3ccc(F)cc3)n2-c2ccccc2)cc1`, the inhibition amounted to 3.86%.
Regarding `Cc1ccc(S(=O)(=O)C(CNC(=O)COc2ccc(Cl)cc2)c2ccco2)cc1` (stereo not drawn), the inhibition worked out at 20.8%.
The figure for `Cc1ccc(NC(=O)N2CCC(C(=O)NCc3ccccc3)CC2)cc1` is active: 39.2%; for `Cc1ccc(NC(=O)c2ccc3c(c2)NC(=O)c2ccccc2S3)cc1` it is -3.63%; for `CCN(CC)CCCNC(=O)C(=O)Nc1ccc2nc3n(c(=O)c2c1)CCCCC3` it is -2.89%.
With `Cc1ccc(Cn2ccnc2SCC(=O)Nc2ccc3c(c2)OCCO3)cc1` the figure was -5.01%; with `COc1ccc(/C=C/C(=O)Nc2ccc(Cl)cc2Cl)cc1`, -8.31%; with `O=C(CN1C(=O)C2(SCC(=O)N2c2ccccc2)c2ccccc21)NCCc1ccccc1` (stereo not drawn), -5.67%.
With `CCc1ccc(NC(=O)CSc2nc3c(sc4ccccc43)c(=O)n2CCN(CC)CC)cc1`, the inhibition was -6.33%.
The figure for `Cc1ccc(CNS(=O)(=O)c2cc3c(cc2C)N(C)CCO3)cc1` is 26.7%.
Turning to `Cc1cn2c(=O)cc(COC(=O)c3ccccc3F)nc2s1`, the inhibition was 15.5%.
With `COc1cc(C)ccc1OCCSc1nc2ccc(NC(=O)c3cccs3)cc2s1` the figure was -11.2%; with `Cc1ccc(C(=O)Nc2ccccc2C(=O)OCc2cc(=O)n3nc(C4CC4)sc3n2)cc1`, 1.78%; with `Cc1ccc(CSCCC(=O)N2CCN(c3cc(C)ccc3C)CC2)cc1`, -23.9%.
The figure for `CCCN(CCC)C(=O)C1CCCN(c2ncnc3onc(-c4ccc(F)cc4)c23)C1` (stereo not drawn) is 6.07%; for `COc1ccc(-c2noc(CN(C(=O)Cc3ccc(C)cc3)C(C)C)n2)cc1` it is 16.3%.
With `COCCCNC(=O)c1sc2nc(C)c(C(=O)Nc3ccc(C)cc3C)c(-c3ccc(Br)cc3)c2c1N` the figure was -1.81%; with `COc1ccccc1N1CCN(CC(O)COCCOc2ccc(Br)cc2)CC1` (stereo not drawn), active: 78.5%; with `CCC(CC)C(=O)NCc1nc2cccnc2n1Cc1ccc(F)cc1`, 6.02%.
As for `O=C(NCCCO)C(=O)Nc1c2c(nn1-c1ccccc1)CSC2`, the inhibition turned out to be 15.5%.
For `COc1cccc(CNC(=O)C2CCN(C(=O)c3sccc3-n3cccc3)CC2)c1`, the inhibition was -11.1%.
With `CCOC(=O)c1cc(-c2ccc(OC)cc2)n(CCC(=O)Nc2cccc(C(C)=O)c2)c1C`, the inhibition is -0.832%.
For the compound `COc1ccc(CNS(=O)(=O)c2ccc(F)c(C(=O)Nc3c(C)cc(C)cc3C)c2)cc1`, the inhibition was -0.531%.
The figure for `Cc1cc2oc(C(=O)Nc3sc4c(c3C(=O)NCc3ccccc3)CCCC4)cc(=O)c2cc1C` is 3.31%; for `CN(C)c1ccc(CNC(=O)CN2C(=O)CCn3nc(-c4cn(C)c5ccccc45)cc32)cc1` it is 9.58%.
Turning to `COc1cccc(-c2nc3c(c(SCc4ccccc4Cl)n2)Cc2c(CO)cnc(C)c2O3)c1`, the inhibition is 12.1%.
`Cc1ccc(CNC(=O)CN2C(=O)CSc3ccc(S(=O)(=O)N4CCCC4)cc32)cc1`: the inhibition is -5.11%.
With `CCc1ccc(C(=O)CSc2nc(-c3ccccc3)nc3c2CCCC3)cc1` the figure was -24.8%; with `COc1cccc(CNS(=O)(=O)c2ccc3c(c2)N(C(C)=O)CCO3)c1`, active: 61.4%.
As for `COc1ccc2nc3sc(C(=O)N4CCN(c5ccc(F)cc5)CC4)cc3cc2c1`, the inhibition is -3.65%.
With `Cc1ccc(C)c(N2CCN(S(=O)(=O)c3ccc4c(c3)CCCN4C(=O)C3CCC3)CC2)c1` the figure was 3.71%.
On to `Cc1ccc(NC(=O)C(C)Sc2nc(-c3ccccc3)cc(=O)[nH]2)cc1` (stereo not drawn), for which the inhibition was active: 36.5%.
The figure for `Cc1ccc([N+](=O)[O-])c(Oc2ncnc3c2oc2ccccc23)c1` is 6.44%; for `Cc1ccc(NC(=O)CCCN2C(=O)COc3ccc(C)cc32)c(C)c1` it is 0.76%; for `COc1ccc2c(Sc3ccccc3)c(C(=O)N3CCC(C)CC3)[nH]c2c1` it is 19.3%.
With `CCCn1c2ccccc2c2cnn(CC(=O)NC(C)CC)c(=O)c21` (stereo not drawn) the figure was -18.9%; with `COc1ccc(OC(=O)CSc2nnc(-c3ccc(F)cc3)o2)cc1`, 19.6%.
With `CCC(=O)N1CCN(c2nc3c(C)cccc3s2)CC1` the figure was -16.8%.
For `CCCCOC(=O)/C(C#N)=C/c1ccc(-c2ccc(Br)cc2)o1`, the inhibition is -12.2%.
As for `NC(=O)Cn1c(=O)n(CCCCCC(=O)NCc2ccccc2Cl)c(=O)c2sccc21`, the inhibition was -2.92%.
With `Cc1ccc(/C=C/C(=O)Oc2ccc(C#N)cc2)o1` the figure was active: 48.4%.
Consider `COc1ccc(C2C(=O)N(C3CCCCCC3)CC(=O)N2Cc2ccccc2)cc1` (stereo not drawn), for which the inhibition came out at 10.3%.
With `COC(=O)c1c(-c2cccs2)csc1NC(=O)COc1ccccc1` the figure was 3.59%; with `CC(CNC(=O)c1ccc(Nc2nc3ccccc3n3nnnc23)cc1)c1ccccc1` (stereo not drawn), 12.4%.
For `CCOC(=O)c1c(-c2ccc(C)cc2C)csc1NC(=O)c1ccccc1Cl`, the inhibition stood at 11.2%.
With `NC(=O)C1CCN(C(=O)c2ccc3c(c2)N(Cc2cccc(Cl)c2)C(=O)c2ccccc2S3(=O)=O)CC1` the figure was -2.48%; with `Cc1ccc2c(=O)cc(C(=O)Nc3c(C(=O)c4ccccc4)oc4ccccc34)oc2c1`, -2.27%.
With `CCOc1ccc(NS(=O)(=O)c2ccc3[nH]cc(C(=O)N(C)C4CCCCC4)c(=O)c3c2)cc1` the figure was -0.0685%; with `O=C(NCCCN1CCCCC1)c1ccc2c(c1)sc1nc(-c3ccc(F)cc3)cn12`, 19.7%.
With `CCc1ccc(-n2c(=O)c3ccc(C(=O)NCCc4ccccc4)cc3n(Cc3ccccc3C#N)c2=O)cc1` the figure was 17.1%.
For `CCOc1ccccc1OCCCNCc1ccco1`, the inhibition is active: 30.6%.
With `O=C(Nc1ccc2nc(SCC(=O)N3CCCC3)sc2c1)c1cccc(F)c1` the figure was -16.3%; with `NC[C@H]1O[C@H](O[C@H]2[C@H](O)[C@@H](O[C@H]3O[C@H](CO)[C@@H](O)[C@H](N)[C@H]3O)[C@H](N)C[C@@H]2N)[C@H](N)C[C@@H]1O`, active: 36.9%; with `COc1ccc(-c2nnc(SCC(=O)c3ccc(NC(C)=O)cc3)o2)cc1OC`, -3.32%.
Take `COc1ccc(-c2nc3ccccc3o2)cc1NC(=O)c1ccc(OCC(C)C)cc1`: the inhibition turned out to be 2.92%.
Take `CSc1ccc(C2c3[nH]c4ccccc4c3CCN2C(=O)CCC2CCCC2)cc1` (stereo not drawn): the inhibition is -3.24%.
Regarding `COC(=O)c1c(-c2cccs2)csc1NC(=O)c1ccc(C(C)(C)C)cc1`, the inhibition amounted to 2.36%.
The figure for `COc1ccc(Cl)cc1NC(=O)Cn1nnc(C(=O)NCc2cccs2)c1N` is 0.199%.
The figure for `COc1ccc2c(CNCc3ccco3)c(C(=O)O)n(Cc3ccccc3)c2c1` is -12.5%.
The figure for `COc1ccccc1NC(=O)COC(=O)CC(C)(C)CC1=NS(=O)(=O)c2ccccc2N1` is 23.7%; for `COc1cccc(N2CC(NC(=O)C3CCCC3)CC2=O)c1` (stereo not drawn) it is 20%.
Take `O=C(O)c1cccnc1Sc1ncnc2sc3c(c12)CCC3`: the inhibition was active: 34.2%.
With `COc1ccc(N2CCN(C(=O)c3c4c(nc5ccccc35)C(=O)N(C3CCCCC3)C4)CC2)cc1` the figure was 6.13%; with `COc1cc(S(=O)(=O)n2ccnc2C(C)C)ccc1Br`, 0.267%; with `Cc1ccc(Cn2ccnc2SCC(=O)NC2CCCC2)cc1`, -6.19%.
With `CCOc1ccc(CCNC(=O)CN2C(=O)COc3ccc(S(=O)(=O)N(CC)CC)cc32)cc1` the figure was -6.88%.
With `COc1ccccc1CNC(=O)C(=O)NCC(c1cccnc1)N1CCN(c2ccc(F)cc2)CC1` (stereo not drawn) the figure was 0.0497%.
